# Measurements from PubChem BioAssay AID1508624 (National Center for Advancing Translational Sciences (NCATS), 2021).
# Out of some 48,000 compounds screened, about 120 (0.25%) were called active. Inconclusive results (about 4%) are left out. Calls follow the shape of the dose curve; as a rule, active = well fitted activation curve with a large enough effect; inconclusive = small, poorly fitted or top-dose-only effect, or another doubt; inactive = no such curve, though single readings can be large or run the other way. This is a selection; strong and weak results do not stand in their true shares. Entries without a call were filed so in the source.
# Experiment: Primary qHTS for Identification of Small Molecule Activators of Huntingtin-Antisense Promoter Activity; also: nearly all actives have a fitted effect of over 55% in size
# Settings: HEK293 HTT-AS promoter firefly luciferase reporter, 24 h; activity change, positive = activation: at 57.5 µM (top of the series), percent change from vehicle, -100% = no light
# Summary of the method: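 Luminescence was read after Dual-Glo reagent and a 10 min room-temperature incubation. Values were normalized to vehicle (0% activity) and zero RLU (-100% activity). Reporter HEK293 cells had been exposed to compounds (up to 57.5 uM final) for 24 h.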
# Potency is read from the fitted curve at half-maximal effect.
Structure (SMILES),"activity change, positive = activation",Potency
CCOC(=O)c1cc(C)n(CC2CCC(C(=O)Nc3cccc(C(C)=O)c3)CC2)c1C (configuration not stated),-0.893%,–
Cc1ccc(S(=O)(=O)Nc2ccc(-c3ccc(N4CCCCCC4)nn3)cc2)c(C)c1,0.12%,–
CCCCn1c(SCC(=O)c2ccccc2)nc2sc3c(c2c1=O)CCCC3,5.27%,–
COc1ccc(N(CC(=O)N2CCCCC2)S(=O)(=O)c2ccc(OC)c(OC)c2)cc1,-2.74%,–
CCCCN(CC)C(=O)c1ccc2c(c1)NC(=O)c1ccccc1S2,-23.4%,–
CC1Cc2cc(S(=O)(=O)CCC(=O)Nc3ccccc3F)ccc2N1C(=O)C1CC1 (configuration not stated),-29.2%,–
O=C(Nc1cccc(Br)c1)N1CCN2CCCCC2C1 (configuration not stated),7.64%,–
Cc1c(NC(=O)Nc2ccc(Cl)c(Cl)c2)sc2nc3n(c(=O)c12)CCC(C)CC3 (configuration not stated),0.177%,–
COc1ccc(C(CC(=O)Nc2cc(Cl)c(OC)cc2OC)N2Cc3ccccc3C2=O)cc1 (configuration not stated),-26.4%,–
CCCOc1ccc(Oc2nc(NC)nc(N3CCOCC3)n2)nn1,inactive: -14.5%,–
COc1ccc(-c2nc(SCC(=O)NC(C)CCc3ccccc3)n[nH]2)cc1 (configuration not stated),inactive: -52.9%,–
CCN(c1ccccc1)S(=O)(=O)c1c(C)nc2scc(C)n2c1=O,-17.1%,–
COc1cc(C2C(=O)N(C3CCCCC3)CC(=O)N2CCc2ccccc2)ccc1OC(C)C (configuration not stated),-8.86%,–
COc1ccccc1CNc1nc2ccc(C)cc2n2nnnc12,-12.6%,–
COc1cccc(NC(=O)CSc2nnc(-c3cccc(OC)c3)o2)c1,–,active: 14.1 µM
Cc1ccc(NC(=O)CSc2ncc(-c3ccccc3)[nH]2)cc1,inactive: -0.974%,–
CCN1CCN(c2cc(C)c3cc(NC(=O)/C=C/c4cccc(OC)c4OC)ccc3n2)CC1,inactive: -9.92%,–
CCOC(=O)C1CCN(C(=O)c2ccc3c(c2)sc2nc(-c4ccc(OC)cc4)cn23)CC1,inactive: -11.3%,–
CCOc1ccccc1CNC(=O)c1cc2c(=O)n(Cc3ccco3)ccc2nc1C,-16.1%,–
CCCc1cc(=O)oc2c(C)c3c(cc12)CN(CCc1ccc(Cl)cc1)CO3,-9.74%,–
Cc1ccc2oc(-c3cc(NC(=O)CC(C)C)ccc3Cl)nc2c1,-26.3%,–
Cc1ccc(NC(=O)CSc2nc3c(sc4ccccc43)c(=O)n2CCCC(=O)NC2CCCC2)cc1C,inactive: -2.3%,–
CCOc1cc(CNC(=O)Cn2ncn3c(cc4cc(F)ccc43)c2=O)cc(OCC)c1OCC,2.33%,–
CCOc1ccc(CCNC(=O)c2cnc3sc(N4CCCCC4)nn3c2=O)cc1,3.9%,–
O=C(Nc1cc(C(F)(F)F)ccc1Cl)c1cnn(-c2ccccc2)c1-n1cccc1,-43.8%,–
Cc1ccc(C)c(NC(=O)CCc2c(C)nn(-c3ccc(N4CCCC4)nn3)c2C)c1,-11%,–
COc1ccc(C2C(=O)N(C3CCCCCC3)CC(=O)N2CCc2ccc(OC)c(OC)c2)cc1 (configuration not stated),-9.28%,–
